Values marked as one replicate rest on one cluster of the flow cell; about a third of the high ones do not repeat.
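Also: ATP exposure 15 min at 22 °C before imaging.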

The data set relates to ATP. Put plainly: switch fluorescence ratio, 500 uM ATP over buffer (Cy3 cluster intensity, sum of 5 cycles each) (fold (ratio)); higher = stronger signal-on switching upon ATP binding; sequences stand for … in TCGTCGGCAGCGTCAGATGTGTATAAGAGACAGTTTTTTTTTTTTTTTTTTTTTTTTT…TC. To be noted: aptamer strand: ATP DNA aptamer (quencher-CACCTGGGGGAGTATTGCGGAGGAAGG + anchor), 100 nM annealed; ATP concentration: 500 uM; one replicate. In short, it runs like this: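 Clusters with intensities outside 100-1000 RFU were excluded. The remaining Cy3-labelled switching-strand clusters on a modified Illumina MiSeq flow-cell had been annealed to 100 nM quencher-labelled ATP aptamer and imaged in selection buffer, then after 15 min with 500 uM ATP at 22 °C, for five cycles separated by NaOH stripping and re-annealing. The fluorescence ratio, averaged per switch-domain sequence, is each cluster's summed target-cycle Cy3 intensity over its summed buffer-cycle Cy3 intensity.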
With AGTTGTTCAG, the switch fluorescence ratio is 1.01.

Turning to ACCGTTAAAA, the switch fluorescence ratio stood at 1.01.

As for GAGTGGAATC, the switch fluorescence ratio is 1.04.

Regarding TTTGTCAAGA, the switch fluorescence ratio came out at 1.02.

CAGTTAGGCA: the switch fluorescence ratio was found to be 0.949.

TCACTCGGTG: the switch fluorescence ratio is 1.01.

Take TAGGGCCCAC: the switch fluorescence ratio amounted to 1.05.

For the sequence AGATAAGCCG, the switch fluorescence ratio came out at 1.04.

As for CCGTGCATAG, the switch fluorescence ratio stood at 2.45.

For GTTAACCGA, the switch fluorescence ratio worked out at 1.08.

AGGAGTCTTT: the switch fluorescence ratio worked out at 0.951.

Take GATACTGAGC: the switch fluorescence ratio stood at 1.04.

On to GATTGGCCTT, for which the switch fluorescence ratio was found to be 1.02.

Consider GTGAATGCAG, for which the switch fluorescence ratio is 1.04.

Turning to TTGTCAGCGG, the switch fluorescence ratio turned out to be 0.978.

In the case of ATATATAACA, the switch fluorescence ratio came to 1.01.

Turning to GGTTAACTTT, the switch fluorescence ratio was found to be 0.981.

ACGGGCCTGG: the switch fluorescence ratio is 0.982.

CTTACCACCT: the switch fluorescence ratio was determined as 1.32.

As to ATGCTTATCC, the switch fluorescence ratio was 1.01.

On to ACTGAAACTT, for which the switch fluorescence ratio was determined as 1.05.

On to AGCTGAGTAT, for which the switch fluorescence ratio was 1.03.

For TCGTGGCGGG, the switch fluorescence ratio worked out at 1.04.

Take TTACGGGAG: the switch fluorescence ratio is 1.05.

Take TTGGCATCAG: the switch fluorescence ratio came to 1.04.

TATGTGCTCC: the switch fluorescence ratio amounted to 1.02.

Regarding TGCATGCTTG, the switch fluorescence ratio came to 0.982.

As for AGCACTCGTA, the switch fluorescence ratio is 1.01.

For the sequence AACAACGGCG, the switch fluorescence ratio amounted to 0.991.

On to AACCATCTGG, for which the switch fluorescence ratio came out at 0.984.

Take CTGAGGTGGC: the switch fluorescence ratio turned out to be 0.995.

For the sequence ATTCTTGGGC, the switch fluorescence ratio turned out to be 1.06.

As to ACGAATATT, the switch fluorescence ratio came to 1.04.

Regarding TCCATTCTTA, the switch fluorescence ratio came out at 0.991.

CGCCAGGTTA: the switch fluorescence ratio was determined as 1.15.

On to GATGCACGTG, for which the switch fluorescence ratio came out at 0.985.

As for CATATAAATC, the switch fluorescence ratio was 1.04.

Turning to GTCGCACATC, the switch fluorescence ratio was found to be 1.62.

As for AATCGTGATG, the switch fluorescence ratio was determined as 1.01.

On to CTTAAGTCAG, for which the switch fluorescence ratio came to 0.982.

For the sequence ACGTCTGAAA, the switch fluorescence ratio amounted to 1.06.

With CTAAGAATTG, the switch fluorescence ratio came out at 0.975.

With CCTCACAGCT, the switch fluorescence ratio was found to be 2.27.

With TAGGGCCGCG, the switch fluorescence ratio came to 1.02.

GAAGGAGACC: the switch fluorescence ratio was determined as 1.01.

Take ATACTGATTG: the switch fluorescence ratio stood at 1.04.

TATTCAGGG: the switch fluorescence ratio stood at 1.01.

For the sequence TGTCTCTTCA, the switch fluorescence ratio was 1.04.

Regarding CGTGCCCGCA, the switch fluorescence ratio was found to be 1.16.

In the case of TGCTCGAC, the switch fluorescence ratio amounted to 1.21.

As to CGCTGATG, the switch fluorescence ratio amounted to 1.01.

In the case of ATGGCGTTAG, the switch fluorescence ratio is 1.01.

Take TTACAGGCTA: the switch fluorescence ratio was determined as 1.01.

AGGCGTCGCG: the switch fluorescence ratio amounted to 1.02.

Turning to GGACGCCAGT, the switch fluorescence ratio is 1.03.

As to GCCTCAGCCA, the switch fluorescence ratio turned out to be 1.31.

For CTTCGGAAAT, the switch fluorescence ratio stood at 1.01.

With GCAGTCATGG, the switch fluorescence ratio turned out to be 0.988.

On to ACAACATAGG, for which the switch fluorescence ratio turned out to be 1.

For GTCCGGGGAT, the switch fluorescence ratio is 1.01.

Take GTCCAATTAA: the switch fluorescence ratio stood at 0.969.

As for CATCAGCCTG, the switch fluorescence ratio was 0.928.

With AAGCAATCAT, the switch fluorescence ratio was found to be 1.22.

Turning to CCATCCGGTT, the switch fluorescence ratio worked out at 1.24.

Regarding CGACATGACC, the switch fluorescence ratio worked out at 1.15.

With GGATTCATAT, the switch fluorescence ratio worked out at 1.

CGAATCTTTA: the switch fluorescence ratio turned out to be 0.948.

Take CATAAAGGGT: the switch fluorescence ratio is 1.04.

Take TGTCATAGAA: the switch fluorescence ratio worked out at 0.997.

Turning to CGGCTAATCT, the switch fluorescence ratio was 1.01.

On to CTTAAAGTAG, for which the switch fluorescence ratio stood at 0.964.

For TAATATCGCT, the switch fluorescence ratio was found to be 0.989.

For the sequence CAGACAATTA, the switch fluorescence ratio was determined as 1.02.

With TGATTAGCTA, the switch fluorescence ratio is 0.97.

For TAACGTTAGG, the switch fluorescence ratio worked out at 1.01.

In the case of GGCATCGGTC, the switch fluorescence ratio was 1.02.

In the case of ACGCTTAGTA, the switch fluorescence ratio is 1.06.

Consider CGTGTGTGAC, for which the switch fluorescence ratio was 1.06.

Consider TCAGGATGC, for which the switch fluorescence ratio worked out at 0.963.

Consider TCCGGCTAGG, for which the switch fluorescence ratio is 1.01.

With ACGTCCTGT, the switch fluorescence ratio was 1.01.

Consider TGGTTTTACC, for which the switch fluorescence ratio worked out at 0.981.

For the sequence AGTGTTTGTG, the switch fluorescence ratio was 0.954.

Turning to CAAACTATGC, the switch fluorescence ratio came out at 1.07.

On to TTCGGAGAG, for which the switch fluorescence ratio is 0.983.

ATCTTTTTTA: the switch fluorescence ratio stood at 1.02.

With GACCATTTGC, the switch fluorescence ratio came to 0.962.

Regarding GCCGTTCTGG, the switch fluorescence ratio was 0.967.

Take AATGCGGGA: the switch fluorescence ratio was determined as 1.01.

For GATCAGGCCC, the switch fluorescence ratio turned out to be 0.986.

In the case of GTGTGGTAGT, the switch fluorescence ratio is 0.919.

On to CCTGGAACAA, for which the switch fluorescence ratio was determined as 1.39.

Take TTCCTAAGCA: the switch fluorescence ratio was determined as 2.22.

Turning to AAGCTTCGGC, the switch fluorescence ratio came to 1.09.

Take GATATGTGTC: the switch fluorescence ratio is 0.958.

TAACTGCATA: the switch fluorescence ratio was found to be 1.08.

As to TTTAATACCG, the switch fluorescence ratio amounted to 0.949.

Take AGGTGGCCCT: the switch fluorescence ratio is 0.986.

With GAAGGTGAAC, the switch fluorescence ratio is 1.04.

With CACTTCTAGC, the switch fluorescence ratio worked out at 0.995.

Consider CTTGCTTCT, for which the switch fluorescence ratio was 1.04.

TGTAAGGCGG: the switch fluorescence ratio came out at 1.01.

For GCTTTGATAC, the switch fluorescence ratio amounted to 1.37.

Consider ACCGGCGTAC, for which the switch fluorescence ratio came out at 1.45.

Consider TACAGGTATT, for which the switch fluorescence ratio worked out at 1.05.

Take CGAAGGGGCC: the switch fluorescence ratio was 0.976.

As for ACCACGGACA, the switch fluorescence ratio amounted to 1.76.

Turning to ATGTGTAT, the switch fluorescence ratio came to 1.

As for CCCAGCTGCC, the switch fluorescence ratio came to 1.64.

As for TCAAATTTGC, the switch fluorescence ratio turned out to be 0.957.

Regarding GTATATTTGA, the switch fluorescence ratio came out at 1.01.

TCGAAAACTA: the switch fluorescence ratio was 1.04.

As to GAGAAACACA, the switch fluorescence ratio was 1.02.

On to GGGTCACGAC, for which the switch fluorescence ratio is 0.987.

CTACGGACGG: the switch fluorescence ratio is 1.49.

For the sequence TGACTATTT, the switch fluorescence ratio amounted to 0.978.

Take TTCCTCCCTA: the switch fluorescence ratio amounted to 3.18.

Consider GCCCAAGTTG, for which the switch fluorescence ratio turned out to be 1.12.

With ACGGAACCCA, the switch fluorescence ratio was 1.17.

Turning to GTCGTTTACA, the switch fluorescence ratio is 1.

The values are drawn from the supplement of paper PMC10126150.
